Nine molecules from publication PMC9911399, “Two distinct binding modes provide the RNA-binding protein RbFox with extraordinary sequence specificity” can be followed below.

To fix the notation:
T1: RBFOX1 RRM RbFoxmut (Fox-RRM*) (Homo sapiens, UniProt Q9NWB1 109-208, R118D;E147R;N151S;E152T)
T1 sequence: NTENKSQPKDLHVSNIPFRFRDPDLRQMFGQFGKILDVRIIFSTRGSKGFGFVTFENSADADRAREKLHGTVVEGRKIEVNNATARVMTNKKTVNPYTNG

B1: CCUAAAG (DNA:RNA)
RNA: GGGAGACCGGAAUUCAGAUUGUCCCCUAAAGUUAAAUCCCGUCGUAGCCACCA
DNA 1: CAATCTGAATTCCGGTCTCCC
DNA 2: TGGTGGCTACGACGGGATT
B2: CCAAAGA (DNA:RNA)
RNA: B1 RNA with U27A, A30G, G31A
DNA 1: CAATCTGAATTCCGGTCTCCC
DNA 2: TGGTGGCTACGACGGGATT
B3: GUCCAUA (DNA:RNA)
RNA: B1 RNA with C25G, C26U, U27C, A28C, A30U, G31A
DNA 1: CAATCTGAATTCCGGTCTCCC
DNA 2: TGGTGGCTACGACGGGATT
B4: CCUACGG (DNA:RNA)
RNA: B1 RNA with A29C, A30G
DNA 1: CAATCTGAATTCCGGTCTCCC
DNA 2: TGGTGGCTACGACGGGATT
B5: UGUCUUG (DNA:RNA)
RNA: B1 RNA with C25U, C26G, A28C, A29U, A30U
DNA 1: CAATCTGAATTCCGGTCTCCC
DNA 2: TGGTGGCTACGACGGGATT
B6: UGCGCUU (DNA:RNA)
RNA: GGGAGACCGGAAUUCAGAUUGUCCUGCGCUUUUAAAUCCCGUCGUAGCCACCA
DNA 1: CAATCTGAATTCCGGTCTCCC
DNA 2: TGGTGGCTACGACGGGATT
B7: CGGAAGG (DNA:RNA)
RNA: B1 RNA with C26G, U27G, A30G
DNA 1: CAATCTGAATTCCGGTCTCCC
DNA 2: TGGTGGCTACGACGGGATT
B8: CCUAGAG (DNA:RNA)
RNA: B1 RNA with A29G
DNA 1: CAATCTGAATTCCGGTCTCCC
DNA 2: TGGTGGCTACGACGGGATT
B9: AGCAUGC (DNA:RNA)
RNA: B6 RNA with U25A, G28A, C29U, U30G, U31C
DNA 1: CAATCTGAATTCCGGTCTCCC
DNA 2: TGGTGGCTACGACGGGATT

Positions count from the first letter of the chain named. Some of the results follow.

The test has as its target T1, RBFOX1 RRM RbFoxmut (Fox-RRM*). The test is described as follows: EMSA; HiTS-Eq, 1 nM pool, 10 min; buffer printed only for the single-RNA assays: 10 mM Tris pH 7.5, 150 mM NaCl, 3.4 mM EDTA, 0.001% NP-40, 30 C. As to conditions: tags: His6 N-terminal (pET28a); label: 5' 32P. The method, boiled down:
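These values rest on relative association constants, computed from read-count changes of each RNA species versus the control reaction and normalised to the cognate motif. Reads came from free RNA recovered by 8% native PAGE after purified RbFox RRM (wild type or mutant) at increasing concentrations was equilibrated for 10 min in 50 µL with 1 nM of a 5′-radiolabelled pool with 7 randomized nucleotides and DNA-annealed flanks.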
Background: In EMSA bound probe runs differently from free probe, usually more slowly.
For the molecule B1, the binding signal was 0.0905 KA relative to UGCAUGU.

B2: the binding signal is 0.106 KA relative to UGCAUGU.

B3: the binding signal is 0.0959 KA relative to UGCAUGU.

In the case of B4, the binding signal is 0.094 KA relative to UGCAUGU.

In the case of B5, the binding signal was 0.674 KA relative to UGCAUGU.

Turning to B6, the binding signal is 0.095 KA relative to UGCAUGU.

As to B7, the binding signal was 0.0742 KA relative to UGCAUGU.

With B8, the binding signal is 0.109 KA relative to UGCAUGU.

In the case of B9, the binding signal is 0.495 KA relative to UGCAUGU.
